# About 14,000 (4.5%) of roughly 310,000 compounds showed an effect of 50% or more. Effects have a minus sign here. The list shows a part of the results.
# Biological target: human ether-à-go-go-related gene (hERG) potassium channel (human, UniProt Q12809)
# Test: primary screen, population patch clamp on CHO cells stably expressing hERG
# 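Also: peak tail current of the secondary pulse compared with the same well before compound.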
# human ether-à-go-go-related gene (hERG) potassium channel, sequence (Q12809 whole entry, looked up): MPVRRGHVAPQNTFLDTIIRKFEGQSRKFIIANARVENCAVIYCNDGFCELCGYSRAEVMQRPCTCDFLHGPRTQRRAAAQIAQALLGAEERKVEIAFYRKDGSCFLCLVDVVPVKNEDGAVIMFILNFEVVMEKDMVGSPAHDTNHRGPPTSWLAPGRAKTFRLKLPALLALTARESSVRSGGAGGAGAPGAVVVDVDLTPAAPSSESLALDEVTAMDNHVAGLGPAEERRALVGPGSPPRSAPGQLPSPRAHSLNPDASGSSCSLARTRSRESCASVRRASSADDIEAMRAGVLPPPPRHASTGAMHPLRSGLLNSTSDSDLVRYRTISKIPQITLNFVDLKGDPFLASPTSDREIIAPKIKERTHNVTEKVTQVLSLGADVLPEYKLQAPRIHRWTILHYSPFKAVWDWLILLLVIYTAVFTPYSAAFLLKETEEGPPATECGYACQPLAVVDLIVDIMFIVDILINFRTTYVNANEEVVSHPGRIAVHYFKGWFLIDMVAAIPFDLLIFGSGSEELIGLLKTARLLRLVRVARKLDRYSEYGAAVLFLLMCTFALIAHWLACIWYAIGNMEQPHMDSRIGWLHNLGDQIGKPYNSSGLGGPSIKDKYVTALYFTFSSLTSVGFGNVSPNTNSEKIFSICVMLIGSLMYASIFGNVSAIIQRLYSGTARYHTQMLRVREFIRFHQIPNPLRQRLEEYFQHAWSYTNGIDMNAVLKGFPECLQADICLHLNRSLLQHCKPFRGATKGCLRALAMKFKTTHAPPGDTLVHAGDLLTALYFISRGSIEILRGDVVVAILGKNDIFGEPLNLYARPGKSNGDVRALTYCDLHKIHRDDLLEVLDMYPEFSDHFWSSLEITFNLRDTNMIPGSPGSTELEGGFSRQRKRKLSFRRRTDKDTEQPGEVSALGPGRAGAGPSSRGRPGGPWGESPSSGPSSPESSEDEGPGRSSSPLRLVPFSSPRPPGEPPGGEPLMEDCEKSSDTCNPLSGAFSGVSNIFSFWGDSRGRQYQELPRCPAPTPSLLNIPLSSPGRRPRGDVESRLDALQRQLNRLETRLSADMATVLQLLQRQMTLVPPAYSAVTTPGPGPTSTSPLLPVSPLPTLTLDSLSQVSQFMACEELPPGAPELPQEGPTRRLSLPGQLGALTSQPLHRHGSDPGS
row,Structure (SMILES),"hERG current change (%, negative = inhibition) at 10uM [%]"
1,COCCOC(=O)c1c(NC(=O)CN2CCc3ccccc32)sc(C(N)=O)c1C,5.03
2,CCCCN1CN(Cc2ccco2)CNC1=S,4.44
3,O=C(CNC(=O)c1ccc(F)cc1)NCc1ccccn1,-1.73
4,CC1=NN(c2ccccc2)C(=O)/C1=C\N(O)c1ccccc1,3.55
5,COC(=O)c1ccc2c(c1)NC(=O)C(N1CCCC1)S2 (centres unmarked),-4.37
6,COc1cc(C(=O)N=c2sc3ccccc3n2C)cc(OC)c1OC,9.29
7,CC(C)CN(CCNC(=O)CC1Oc2ccccc2NC1=O)CC(C)C (centres unmarked),-27.7
8,COCCCN1Cc2cccc(C(=O)O)c2C1=O,-3.51
9,C/C(=N\NC(=O)CCc1ccc(S(=O)(=O)N2CCOCC2)cc1)c1ccccc1Cl,3.18
10,COc1ccc(CC(=O)Nc2nc(-c3ccccc3)c(C(C)=O)s2)cc1OC,19.8
11,COc1cccc(C(=O)NCc2ccccc2OC)c1,-4.18
12,Cc1cc2nnc(SCc3ccccc3)n2c(N)n1,-14.8
13,COCCN(Cc1ccccc1)C(=O)c1cccc(S(=O)(=O)N(C)c2c(C)n(C)n(-c3ccccc3)c2=O)c1,-10.7
14,Cc1cccc(NC2=NC3(CCCCC3)N=C(N)N2)c1,-0.675
15,Cc1cc(-c2nnc(CCC(=O)NC(C)c3cccc4ccccc34)o2)no1 (centres unmarked),-3.86
16,CC(=O)Nc1nc2ccc(C(=O)NC3CCCCC3)cc2s1,-1.99
17,CC(C)[n+]1ccn(C2=C([O-])c3ccccc3C(=O)/C2=N\S(=O)(=O)c2ccccc2)c1,10.8
18,COc1ccc(-n2nnc3c(SCC(=O)OCc4ccccc4)ncnc32)cc1,1.5
19,O=C(c1cccc2ccccc12)n1nnc2ccccc21,11.7
20,O=C(NC(C(=O)O)c1ccccc1)c1ccc(S(=O)(=O)N2CCOCC2)cc1 (centres unmarked),-6.67
21,Cc1cc(-c2ccccc2)nc(SC(C(=O)O)c2ccccc2)n1 (centres unmarked),26.5
22,COC(=O)CSc1nc2ccccc2o1,5.57

row,Structure (SMILES),"hERG current change (%, negative = inhibition) at 10uM [%]"
1,CC1CCC(NC(=O)C2c3ccccc3C(=O)N2Cc2ccc3c(c2)OCO3)CC1 (centres unmarked),8.2
2,CCOC(=O)N1CCN(Cc2nc3cc(NC(=O)c4cccs4)ccc3n2CC)CC1,-55.3
3,C/C(=C1/SC(N2CCOCC2)=NC1=O)c1ccc(Br)cc1,14.8
4,Cc1ccccc1N1CCN(Cc2ccc3c(c2)OCO3)CC1,-31.2
5,Cc1cc(C(=O)c2ccccc2)c(NC(=O)CN2CCOCC2)s1,6.31
6,CC(=O)Nc1cc(C(=O)N2CCc3ccccc3C2)ccc1Sc1ccc(C)cc1,-53.6
7,Cc1ccc(NC(=O)NC(=O)CN2CCCC2c2ccc3c(c2)OCCO3)cc1C (centres unmarked),-3.12
8,O=C(NCc1cccnc1)C1CCN(c2ccc(S(=O)(=O)N3CCOCC3)cc2Cl)CC1,-41.3
9,O=C(CSc1nnc2scc(-c3ccc(F)cc3)n12)NCc1ccco1,9.31
10,Cc1ccsc1C(=O)OCC(=O)NCCC1=CCCCC1,10.8
11,CCN(CC)S(=O)(=O)c1ccc(-c2nnc(SCc3nnc(-c4ccc(C)cc4)o3)n2CC)cc1,-55.2
12,C/C(Cl)=C/Cn1c(SC(C)C)nc2c1c(=O)[nH]c(=O)n2C,-6.63
13,CC(=O)Nc1ccc(NC(=O)COC(=O)c2ccccc2SCC(=O)N2CCCC2)cc1,5.48
14,CC1(C)O[C@@H]2[C@H](O1)[C@@H](COS(=O)(=O)[O-])O[C@H]2n1cnc2c(=O)[nH]cnc21.[K+],19.8
15,O=C(/C=C/C=C/c1ccccc1)c1ccco1,9.52
16,Cc1cc(=O)[nH]c(CN2CCOCC2)n1,17.3
17,O=S(=O)(NC1CC1)c1ccc(S(=O)(=O)N(Cc2ccccn2)C2CCCC2)cc1,-47.2
18,CN1C(=O)/C(=C\c2ccc(OC(=O)c3ccco3)cc2)SC1=S,24.1
19,Cn1nccc1C(=O)N1CCN(c2ncccn2)CC1,14.6
20,CS(=O)(=O)c1ccc(C(=O)Nc2cc(-c3ccccc3)nn2-c2ccccc2)cc1,-23.3
21,CO/C=C\C=C/c1nnn(-c2ccc(Cl)cc2)n1,-0.625
22,CCN(C(=O)c1cc2c(=O)[nH]c3ccc(C)cc3c2s1)c1ccc(OC)cc1,9.09

# — publication PMC4336329 (PLoS ONE, 2015)
